Measurements as given in the RNAGym collection of RNA variant scans (doi:10.1093/nar/gkz1192).
The source gives no read counts; variants with many changes may rest on few reads.

B1: CPEB3 Ribozyme (parent)
chain: UAACAGGGGGCCACAGCAGAAGCGUUCACGUCGCAGCCCCUGUCAGAUUCUGGUGAAUCUGCGAAUUCUGCUGUAUAUCUC

Variants of: B1
Assay: self-cleavage, relative activity (ratio to wild type); higher = more cleavage; in vitro, sequencing
Procedure, shortened: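 Relative activity was defined as the cleaved/total read fraction for a variant divided by the same fraction for the unmutated ribozyme. CPEB3 self-cleaving ribozyme libraries were made by rounds of error-prone PCR, barcoded, and transcribed in vitro with T7 RNA polymerase for 5 hours at 37°C, and cleavage ran through transcription plus a 15 min DNase I step before EDTA. Illumina sequencing of template-switched reverse transcripts gave the reads, and DNA sequencing mapped the barcodes. Averages come from three batches, using variants with at least 5 reads.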

| Variant | self-cleavage |
| --- | --- |
| C12U A20U A21G U26A C32A U66C | 0.08 |
| C12U A18U U25C A64U | 0.05 |
| C12G A20G U51C U69A U74A | 0.05 |
| C12G A18U U26A A45U A64C U76C | 0.05 |
| C12U A15G C37U U60A U76C | 0.19 |
| C12G A13G A28C A45G U74C | 0.08 |
| C12G C29G A75G | 0.06 |
| C12U A18U A21C U41C A56G A57G U60A | 0.06 |
| C12U A13G U51G U78C | 0.57 |
| C12U A13G U25C C62U A65U | 0.13 |
| C12G U25C A35G A65U | 0.07 |
| C12U A20G A35U A47G U67A | 0.35 |
| C12U A13G C27G U31C C62G A65G U74C | 0 |
| C12U A20G A45G U69A | 0.48 |
| C12G A18G U25C G33A A56G U72A | 0.09 |
| C12G A35G A65G | 0.28 |
| C12G G24A U74A | 0.06 |
| C12U A18G U67C | 0.16 |
| C12U A15U U31C A75U | 0.98 |
| C12G A20G A35G A45G A65U U74C | 0.14 |
| C12G A13U A15U U49C | 0.08 |

| Variant | self-cleavage |
| --- | --- |
| C12U A18G A45G U54C U72C U74A | 0.64 |
| C12U A20U A45U A57G | 0.09 |
| C12U A28G A77U | 1.24 |
| C12U A13G U31A U43C U80C | 0.14 |
| C12G C38U U49C U80C | 0.05 |
| C12U A21G U26A A56C A57G U69A U80A | 0.25 |
| C12U A13G A20G U25C U31A | 0.03 |
| C12G U25A U43C U69A | 0.04 |
| C12G A21U C40A U60A C79A | 0.04 |
| C12G U25G U80C | 0.4 |
| C12U A20G G46U U80C | 0.15 |
| C12U A18C U49C U60A | 0.14 |
| C12U A21U U58A | 0.11 |
| C12U A15G U54C U72A | 0.33 |
| C12G G55U A64G | 0.19 |
| C12G C40A U54C A56G | 0.1 |
| C12G A13G U26C U31C | 0.59 |
| C12A U54C A56G U76C | 1.14 |
| C12G C39A A45U G52U U69C | 0.04 |
| C12U A13C A18G U26A | 0.93 |
| C12U A15G A47G U76A | 0.9 |

| Variant | self-cleavage |
| --- | --- |
| C12U A15G A20G A47G U49A U51A U58C | 0.1 |
| C12G U31C C37G U60A U66C U78A | 0.03 |
| C12U A21G C27A A35G A65U U74C C79U | 0.05 |
| C12G A21G U54A | 0.23 |
| C12G C44A U58C U60C U69C U80C | 0.09 |
| C12U A13U U26C U41C U49C A64G U76A | 0.09 |
| C12G A13U A20G U43C | 0.2 |
| C12G A13G C23G A56G U58C U74C U80C | 0.07 |
| C12G U58C U66C | 0.18 |
| C12G A15U A45U | 0.21 |
| C12U A18G A20G G70A | 0.38 |
| C12G U43C U54G | 0.24 |
| C12G C40G A64G | 0.07 |
| C12U A15U A18U | 0.48 |
| C12G A20G A56U U67A U78C | 0.1 |
| C12U A18G C40U | 0.61 |
| C12G G24A U43A A65G | 0.06 |
| C12A U51A G52A A65C | 0.26 |
| C12U A13G C27G C62G U74C | 0.22 |
| C12G G53A A77U | 1.08 |
| C12U A20U G36A U41C U67A | 0.36 |

| Variant | self-cleavage |
| --- | --- |
| C12U A13G U26C A28G A47U G63A U80A | 0.04 |
| C12U A15U U31A C37G U43A A47G U51C | 0.07 |
| C12U A18G U26C G33A | 0.41 |
| C12U A21G A35G G42A U51A U80G | 0.06 |
| C12U A18G A35G A64G U69C | 1.31 |
| C12U A18G G33A | 0.06 |
| C12G A15G U26A C32G U69A A75G | 0.1 |
| C12G A35G U58C | 0.14 |
| C12G A13G U51A A56U U69A A77U | 0.15 |
| C12U A15G U49C | 0.08 |
| C12U A18G C29U U69C A75G U80A | 1.26 |
| C12U A13G A64G | 0.58 |
| C12A U76C A77G | 1.05 |
| C12A U54A A64U U67A U69G | 0.44 |
| C12G A45U U49A U80A | 0.21 |
| C12G U26A U51G | 0.24 |
| C12U A18U U69A | 1.28 |
| C12U A15U U31C A35U | 0.79 |
| C12A U54C U60G A65C | 0.14 |
| C12U A21G U51C U69C | 0.36 |
| C12G U54A U80C | 0.64 |
